Experimental findings from PubChem BioAssay AID488969 (Vanderbilt High Throughput Screening Facility, 2010) are described below.

Over roughly 110,000 compounds, “z-score” has its median near -0.1; the highest 2% begin near 2. The list shows a part of the results. Active and inactive are the calls of the source.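 How the source made its calls: active means z-score in the third read window above 3 or below -3; inactive means the rest.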

This experiment addresses Metabotropic glutamate receptor 8 (Rattus norvegicus) (UniProt P70579). Put plainly: rat mGluR8 modulators via GIRK flux, primary screen, cell-based, thallium flux, HTS (AID 488969). As to conditions: HEK293 rat mGluR8, GIRK (G protein-gated inwardly rectifying potassium channel) thallium flux, FluoZin2; at 10 µM; stronger effect = higher value; submaximal glutamate (EC20) added with thallium.
UniProt P70579, sequence (P70579 whole entry, looked up): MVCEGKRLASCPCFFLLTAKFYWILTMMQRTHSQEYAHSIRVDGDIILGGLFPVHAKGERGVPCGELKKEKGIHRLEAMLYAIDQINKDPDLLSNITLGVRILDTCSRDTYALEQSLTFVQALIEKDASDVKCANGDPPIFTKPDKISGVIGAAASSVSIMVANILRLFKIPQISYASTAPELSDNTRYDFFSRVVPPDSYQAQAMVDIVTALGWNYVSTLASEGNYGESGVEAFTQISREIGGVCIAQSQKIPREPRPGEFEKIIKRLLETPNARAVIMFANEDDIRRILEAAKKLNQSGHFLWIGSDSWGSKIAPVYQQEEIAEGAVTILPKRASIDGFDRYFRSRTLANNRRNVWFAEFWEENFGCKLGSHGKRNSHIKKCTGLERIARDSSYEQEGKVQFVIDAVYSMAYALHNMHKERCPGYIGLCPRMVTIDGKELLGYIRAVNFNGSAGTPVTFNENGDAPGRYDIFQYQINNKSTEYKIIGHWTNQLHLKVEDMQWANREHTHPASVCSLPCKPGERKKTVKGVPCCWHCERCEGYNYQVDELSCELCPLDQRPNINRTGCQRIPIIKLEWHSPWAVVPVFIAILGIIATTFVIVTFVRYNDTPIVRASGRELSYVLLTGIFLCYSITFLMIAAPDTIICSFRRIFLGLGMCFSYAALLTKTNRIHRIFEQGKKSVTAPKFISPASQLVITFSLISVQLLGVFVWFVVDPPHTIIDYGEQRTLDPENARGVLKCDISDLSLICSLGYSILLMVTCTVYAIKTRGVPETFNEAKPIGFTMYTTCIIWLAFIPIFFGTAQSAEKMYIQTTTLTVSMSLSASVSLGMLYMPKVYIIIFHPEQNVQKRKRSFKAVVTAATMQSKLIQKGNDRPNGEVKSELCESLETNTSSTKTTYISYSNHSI
As to `COc1ccc(C2=NO[C@@H]3C(=O)N(C4CCCCC4)C(=O)[C@H]23)cc1OC`, the z-score was -0.0141.
The result for `Cc1c(C2=CCN(S(=O)(=O)c3ccc(Br)cc3)CC2)c2ccccc2n1C` reads 0.058.
With `Cc1ccc(Cn2c(SC3CCOC3=O)nc3ccccc3c2=O)cc1` (stereo not drawn) the figure was -0.587; with `Cc1ccccc1S(=O)(=O)Nc1nc2ccccc2nc1N1CCOCC1`, 0.635.
With `O=C(Nc1ccc2c(c1)OCCO2)C1CCCN(S(=O)(=O)c2cccs2)C1` (stereo not drawn) the figure was -0.198.
Regarding `COc1ccc(-n2c(O)c(/C=N/NS(=O)(=O)c3cc(C)ccc3C)c3ccccc3c2=O)cc1OC`, the z-score was -1.
With `CCOCC(=O)N1CCN(c2ccc([N+](=O)[O-])cc2)CC1` the figure was -0.138; with `Cn1nc([N+](=O)[O-])nc1Sc1ccc(C(C)(C)C)cc1`, 0.378.
With `CCc1c(C)nc2ncnn2c1N1CCC(C(=O)N2CCN(c3ccc(F)cc3)CC2)CC1` the figure was 0.284; with `O=C(Nc1ccccc1)N(CCc1ccncc1)C1CCCCC1`, 0.332.
The result for `Cn1ccnc1SCC(=O)Nc1ccccc1` reads 0.326; that for `O=[N+]([O-])c1cccc(-c2nc(Oc3ccc(Cl)cc3)c3ccccc3n2)c1`, -0.621.
Take `Cc1nn(-c2ccccc2)c(Cl)c1/C=C/C(=O)c1ccccc1`: the z-score was 0.866.
The result for `Cc1ccc(CNC(=O)C23CN(Cc4ccccc4)CC2C(c2ccc([N+](=O)[O-])cc2)=NO3)cc1` (stereo not drawn) reads -0.127.
`Nc1c(-c2ccccc2)nc(Cl)nc1-c1ccccc1` returned a z-score of -0.494.
`C=CCn1c(CCCOc2ccc(Cl)cc2Cl)n[nH]c1=S` returned a z-score of 0.176.
With `CC(OC(=O)CCC(=O)c1cccs1)C(=O)Nc1ccc(Cl)cn1` (stereo not drawn) the figure was -0.131; with `Cc1c(C)[n+](=O)c(-c2ccc(F)cc2)c(C)n1[O-]`, 1.42.
The result for `CCN(CC)S(=O)(=O)c1ccc(C(=O)Nc2ccc(OCC(=O)N3CCOCC3)cc2)cc1` reads -1; that for `C(=C\c1ccco1)/C1=NN(c2ccccc2)C(c2ccco2)C1` (stereo not drawn), -0.0665; that for `CCCCNC(=O)C1c2ccccc2C(=O)N(c2ccc(OC)cc2)C1c1ccc(OC)cc1` (stereo not drawn), 0.655.
With `Cc1cccc(C(=O)Nc2ncc(CN3CCOCC3)s2)c1` the figure was 0.554; with `CCc1ccc2oc(-c3cccc(N)c3)nc2c1`, -0.135.
In turn, `OCCc1ccc(-c2ccc(Cl)cc2)o1` showed a z-score of -1.18.
The result for `O=C(O)c1cccnc1SC1CC(=O)N(CCc2ccccc2)C1=O` (stereo not drawn) reads 1.34; that for `O=[N+]([O-])c1cc(S(=O)(=O)N2CCCC2)ccc1NCCc1ccccc1`, -0.133; that for `CN(C)S(=O)(=O)c1cccc(N=c2scc(-c3ccc4c(c3)NC(=O)CO4)n2CC2CCCO2)c1` (stereo not drawn), 0.0413.
The compound `CC(NCc1ccccc1)C1COc2ccccc2O1` (stereo not drawn) came in with a z-score of 0.0779.
With `COC(=O)C1=C(C)N(c2cccc(C)c2)C(=O)/C1=C\c1cccs1` the figure was -0.334.
With `CC(C)c1ccc(-c2nc(N3CCCCCC3)nc3n[nH]c(N)c23)cc1` the figure was -0.0505; with `CCOC(=O)C1CCc2sc(N)c(C#N)c21` (stereo not drawn), 2.38; with `O=C(NC(NCCCN1CCOCC1)(C(F)(F)F)C(F)(F)F)C1CCCCC1`, 0.0382.
The result for `CC(C)NC(=O)c1cc(-c2ccco2)on1` reads -0.291.
`COc1ccc(-c2sc(NC(=O)c3ccc(C)cc3)nc2-c2ccc([N+](=O)[O-])cc2)cc1` displayed a z-score of 0.0824.
With `COCCn1c(C)cc(C(=O)COC(=O)c2ccc3c(c2)NC(=O)CS3)c1C` the figure was -0.422; with `COc1ccc(CCNS(=O)(=O)c2ccc(C(=O)NCc3ccco3)cc2)cc1OC`, 0.0857; with `CCc1ccc(C(=O)N2CCC(c3nc4ccccc4s3)CC2)cc1`, -0.807.
With `CC(C)NC(=S)Nc1ccc(S(=O)(=O)Nc2ncccn2)cc1` the figure was -0.142; with `Brc1ccccc1OCCCCCN1CCCC1`, 0.0397.
The result for `COc1ccc(N(CC(=O)Nc2cc(C(=O)O)ccc2C)S(=O)(=O)c2c(C)noc2C)cc1` reads -0.209; that for `O=C(NCC(=O)N(Cc1cccs1)C(C(=O)NC1CCCCC1)c1cccnc1)c1ccco1` (stereo not drawn), -0.0836.
In turn, `CCOc1cccc(CNn2cnnc2)c1OCc1ccccc1` displayed a z-score of -0.295.
The result for `COC(=O)/C(=C/c1cccnc1)NC(=O)c1ccccc1` reads -0.0328.
With `Cc1c(C(=O)Nc2nccs2)sc2nc(-c3cccs3)cc(C(F)(F)F)c12` the figure was 0.481.
With `O=C(CCC(=O)OCC(=O)c1ccc(Br)cc1)NC1CCCCC1` the figure was 0.0955; with `O=C(Nc1ccccc1C(=O)N1CCOCC1)C1CC(=O)N(C2CCCC2)C1` (stereo not drawn), 0.382; with `Clc1ccc2nc(CSc3nncn3-c3ccccc3)cn2c1`, 0.296.
On to `CCOC(=O)c1sc(/N=C/c2c(C)[nH]n(-c3ccccc3)c2=O)c(C#N)c1C`, for which the z-score is -0.156.
On to `CCOC(=O)c1c(CN2CCOCC2)n(-c2ccccc2)c2cc(Br)c(O)c(CN(C)C)c12`, for which the z-score is -0.781.
With `CCOc1c2ccc(C(=O)NCC34CC5CC(CC(C5)C3)C4)cc2nn1CC` the figure was -0.279; with `CC(=O)NC1=NN(C(C)=O)C2(S1)C(=O)N(C(C)C)c1ccc(C)cc12` (stereo not drawn), -0.286.
As for `COC(=O)C(C)n1cnc2c(nnn2-c2cccc(Cl)c2)c1=O` (stereo not drawn), the z-score was -0.535.
Compound `CSCCC(NC(=O)c1cccc(S(=O)(=O)N2CCOCC2)c1)C(=O)Nc1ccc(F)cc1` (stereo not drawn) registered a z-score of 0.0957.
With `CC1=C(C(=O)OC(C)C)C(c2ccc(F)cc2)NC(=O)N1` (stereo not drawn) the figure was -0.631.
With `Cc1ccc2nc(Nc3ccccc3)c(/C=N/O)c(=O)n2c1` the figure was -0.745.
With `CCNC(=O)CN(C1CCCCC1)S(=O)(=O)c1ccc(F)cc1` the figure was -0.185.
In turn, `CC(=O)c1c(N2CCN(C)CC2)[nH]c(-c2ccccc2)nc1=S` yielded a z-score of 0.167.
In the case of `COCCN(C(=O)C1CCC1)c1nnc(-c2cccnc2)s1`, the z-score was 0.0298.
The result for `Clc1ccc(-n2nnnc2Sc2ncnc3sccc23)cc1` reads -1.84; that for `CCOC(=O)c1c(CN2CCCCC2)n(C)c2cc(Br)c(O)c(CN(C)C)c12`, -0.436; that for `Cc1ccc(N=C(NOC(=O)c2ccccc2)c2nonc2N)c(C)c1`, -0.261.
With `c1ccn2c(SCc3cn4ccsc4n3)nnc2c1` the figure was 1.12; with `C=CCn1c(COc2cccc3ccc(C)nc23)nnc1SCC(N)=O`, 0.223; with `O=S(=O)(c1ccc(Cl)cc1Br)N1CCCCC1`, -0.285.
The result for `Cc1ccccc1NC(=O)CN1CCC(n2nnc3ccccc32)CC1` reads 0.471.
For the compound `O=C(NCCCN1CCOCC1)c1ccc(CS(=O)(=O)Cc2ccc(Cl)cc2)o1`, the z-score was -0.32.
The result for `Cn1cccc1C(=O)NC(=O)CSc1cccc[n+]1[O-]` reads 0.315; that for `C/C(=C\C(=O)O)C12CC3CC(CC(C3)C1)C2`, -0.203; that for `C=CCn1c(COc2ccc(Cl)cc2)nnc1SCC(=O)N/N=C/c1cccc(O)c1`, -0.279.
Compound `COCCn1c(SCC(=O)NCc2ccco2)nnc1-c1c[nH]c2ccccc12` returned a z-score of -0.298.
For the compound `COc1ccc2c(C)c(C(=O)NCC(C)O)oc2c1OC` (stereo not drawn), the z-score is -0.0493.
With `Cc1nc2c(cc1C(=O)N/N=C/c1ccc(O)c(O)c1)c(=O)n(C)c(=O)n2C` the figure was -0.121; with `COC(=O)CNC(=O)CNC(=O)c1nn(-c2ccc(OC)c(Cl)c2)c(=O)c2ccccc12`, -0.177; with `C=CCNCCOc1cccc(Br)c1`, -0.00148.
The result for `O=C(CCNC(=O)c1ccc(Br)o1)NCc1ccc(Cl)cc1` reads 0.592.
The result for `CCOc1ccc(NC(=O)Cn2nnc(-c3ccccc3F)n2)cc1` reads active: 3.4.
In turn, `CCCCN1C(=O)NC(NS(=O)(=O)c2ccc(N)cc2)(C(F)(F)F)C1=O` (stereo not drawn) came in with a z-score of 0.213.
The result for `Cc1cccc(-c2nc3c(c(SCC(=O)N4CCOCC4)n2)CCCC3)c1` reads -0.678; that for `Cc1ccc(CCN2CC(C(=O)NCCCN3CCOCC3)CC2=O)cc1` (stereo not drawn), -0.517; that for `CS(=O)(=O)N1CCN(C(=O)CCC2CCCC2)CC1`, -0.239.
With `CCN(C(=O)c1cccc(F)c1)c1ccccc1C` the figure was -0.249; with `CCc1ccc2[nH]c(=O)c(CN(CCN(C)C)C(=O)Nc3ccccc3OC)cc2c1`, 0.133.
`Nn1cnnc1N/N=C\c1ccc(-c2ccccc2[N+](=O)[O-])o1` came in with a z-score of -0.277.
The result for `O=C(Cc1cccs1)N/N=C/c1ccco1` reads 0.212; that for `COc1ccc(N2C(=O)C3C4C=CC(C4)C3C2=O)nn1` (stereo not drawn), -0.972; that for `Nc1ccccc1N1CCOCC1`, 0.0932.
With `Cc1[nH]nc(SCC(=O)NCc2ccccc2)c1[N+](=O)[O-]` the figure was 0.0569.
With `C=CCN1C(=NC(=O)CCCC(=O)O)SC2CS(=O)(=O)CC21` (stereo not drawn) the figure was 1.68.
In the case of `CCc1ccccc1N(CC)C(=O)CCc1nc(-c2ccc(C)cc2)no1`, the z-score was -0.0345.
Compound `Cn1c(=O)c2cc(S(=O)(=O)NC(C(=O)Nc3cccnc3)c3ccccc3)ccc2n(C)c1=O` (stereo not drawn) showed a z-score of 0.112.
In the case of `COc1cc(C(C(=O)NC(C)(C)C)N(Cc2ccc3c(c2)OCO3)C(=O)c2cnccn2)cc(OC)c1OC` (stereo not drawn), the z-score worked out at 0.387.
With `COc1ccc2c(c1)C(C1=C(O)CC(C)(C)CC1=O)C1=C(CC(C)(C)CC1=O)O2` (stereo not drawn) the figure was 0.577; with `O=C(CC1CCCCC1)N1CCCC(c2nc(-c3ccc(S(=O)(=O)N4CCCC4)cc3)no2)C1` (stereo not drawn), -0.761.
With `CSc1nc2ccccc2cc1/C=C(\C#N)c1cccc(Cl)c1` the figure was 0.938; with `CCOc1ccccc1CN1CCC(O)CC1`, -0.206.
With `CC1(C)CC2(CCO1)N1CC3(C)CN2CC(C)(C1)C3O` (stereo not drawn) the figure was 0.0449.
Consider `O=C(Nc1ccccc1)NC1(C(=O)NCc2cccs2)CCCCC1`, for which the z-score was 0.44.
The result for `COCCOc1ccc(C(F)(F)F)cc1NC(=O)c1ccc(F)cc1` reads 0.0245.
With `O=C(NCc1ccccc1)C1CCN(S(=O)(=O)c2cc([N+](=O)[O-])ccc2Cl)CC1`, the z-score was -0.106.
With `CC(=O)c1cnc2c(-c3ccccc3)c(C)nn2c1C` the figure was 0.132; with `Cc1ccc2cc3c(N)c(C(=O)Nc4c(C)[nH]c(=O)[nH]c4=O)sc3nc2c1`, 0.275; with `Cc1cc(NC(=O)c2cccc(S(=O)(=O)N(C)C)c2)n(-c2ccccn2)n1`, -0.588.
For `CCOC(=O)c1nnc(-c2cccs2)nc1Oc1ccc(Cl)cc1`, the z-score amounted to 0.547.
With `CN(Cc1ccc(F)cc1)C(=O)COc1ccccc1-c1ccccc1` the figure was -0.241; with `CCOC(=O)c1sc(Nc2nc3ccc(OC)cc3s2)cc1C`, -0.193; with `Cc1cc(C)cc(-n2nc(C)cc2N)c1`, 0.834.
The result for `CC(=O)Nc1ccc(S(=O)(=O)Nc2nc3ccccc3nc2Nc2ccc(S(N)(=O)=O)cc2)cc1` reads -0.462; that for `O=C(CCn1cnc2ccccc2c1=O)Nc1ccc(S(=O)(=O)N2CCCC2)cc1`, -1.13.
